Measured values reported in PubChem BioAssay AID1468 (National Center for Advancing Translational Sciences (NCATS), 2008).
Out of some 280,000 compounds screened, about 1,100 (0.39%) were called active. The shares of active, inactive and inconclusive entries below differ from those in the screen. Calls follow the shape of the dose curve; as a rule, active = well fitted inhibition curve with a large enough effect; inconclusive = small, poorly fitted or top-dose-only effect, or effect the other way; inactive = flat fitted curve, though single readings scatter. Potencies of inconclusive entries are left out as doubtful fits.
% is scaled to controls: 0 for no effect and ±100 for the full control effect; potency is read from the fitted curve at half-maximal effect; tags tell the direction and shape of the fitted curve.
Also: nearly all actives have a fitted effect of over 55% in size.

The compounds below were run against Microtubule-associated protein tau (Homo sapiens) (UniProt P10636) (assay: qHTS for Inhibitors of Tau Fibril Formation, Fluorescence Polarization). Conditions: K18 P301L tau heparin fibrillization, Alexa594 FP, 6 h; series mostly up to 57.7 µM; activity, negative = inhibition: at the top concentration.
UniProt P10636, sequence (P10636 whole entry, looked up): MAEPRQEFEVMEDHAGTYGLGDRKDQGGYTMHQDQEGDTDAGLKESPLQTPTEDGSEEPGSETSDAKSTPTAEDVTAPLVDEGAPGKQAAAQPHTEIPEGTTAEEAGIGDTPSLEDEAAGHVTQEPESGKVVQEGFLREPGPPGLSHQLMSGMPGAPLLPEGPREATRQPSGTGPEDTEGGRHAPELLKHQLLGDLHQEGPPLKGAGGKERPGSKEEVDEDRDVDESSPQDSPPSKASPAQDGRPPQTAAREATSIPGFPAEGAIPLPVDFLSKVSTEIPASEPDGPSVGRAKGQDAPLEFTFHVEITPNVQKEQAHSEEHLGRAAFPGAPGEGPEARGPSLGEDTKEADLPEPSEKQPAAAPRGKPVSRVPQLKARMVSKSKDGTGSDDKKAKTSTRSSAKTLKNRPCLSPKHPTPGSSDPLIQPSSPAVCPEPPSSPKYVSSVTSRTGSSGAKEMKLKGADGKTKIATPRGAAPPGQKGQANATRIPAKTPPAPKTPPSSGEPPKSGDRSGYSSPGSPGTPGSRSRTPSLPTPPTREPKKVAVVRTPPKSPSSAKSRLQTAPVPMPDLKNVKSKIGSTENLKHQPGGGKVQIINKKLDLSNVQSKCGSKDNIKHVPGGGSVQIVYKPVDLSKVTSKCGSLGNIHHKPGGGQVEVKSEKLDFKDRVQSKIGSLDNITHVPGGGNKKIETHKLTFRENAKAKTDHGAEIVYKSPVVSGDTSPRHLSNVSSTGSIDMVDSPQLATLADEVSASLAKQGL
Procedure, shortened: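 FP of Alexa 594-tau after heparin (20 uM) induction. Substrate: human K18 P301L, 15 uM unlabeled, 0.24 uM labeled. Buffer 100 mM sodium acetate pH 7. 6 hr, 37 C.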
For Cc1ccc(-n2nc(CC#N)c(C#N)c2N)cc1, the Potency was inconclusive [activator, single point].
For O=[N+]([O-])c1ccc(/C=C2\CCC(C3=CCCC3)=C2N2CCOCC2)cc1, the Potency was inconclusive [inhibitor, single point].
With CC[C@@H]1C(c2cccc(C)c2)=NN(c2ccc(Br)cc2)[C@H]1C(=O)N1CCOC1=O the “activity, negative = inhibition” value was inactive: -13.6%.
With O=C(Cn1ncc2c3ccccc3n(Cc3cccc(Cl)c3)c2c1=O)NCCCN1CCCCC1 the “activity, negative = inhibition” value was inactive: -0.895%.
With CCSc1ccccc1C(=O)N1CCN(Cc2ccc3c(c2)OCO3)CC1 the Potency was inconclusive [inhibitor, single point].
In the case of C#CCN1C(=O)S/C(=C/C=C/c2ccc(N(C)C)cc2)C1=O, the Potency is reported as inconclusive [activator, full curve].
Cc1ccc(CNC(=O)Cn2c(=O)cc(C)c3c(C)nn(-c4cccc(F)c4)c32)cc1 was tested, and the “activity, negative = inhibition” value was inactive: -16.8%.
With COc1cc(/C=N/N=C2/NC(=O)C(CC(=O)O)S2)ccc1OCc1ccc(Cl)cc1 (centres undefined) the “activity, negative = inhibition” value was inactive: 12.2%.
For COC(=O)[C@@H]1C[C@@H]2CC[C@@H](O)C[C@@H]2N1Cc1ccc(C)s1, the “activity, negative = inhibition” value was inactive: 5.51%.
With CC(=O)c1cccc2c(O)c(C3=Nc4ccccc4C3=O)[nH]c12 the Potency was inconclusive [inhibitor, full curve].
With Cc1ccc(NC2=C(NC(=O)c3ccccc3)C(=O)c3ccccc3C2=O)cc1Cl the Potency was inconclusive [inhibitor, single point].
COc1cc(C(=O)OCC(=O)Nc2cc(C)on2)ccc1OCc1ccccc1Cl was tested, and the Potency was inconclusive [inhibitor, single point].
With CN1C(=O)/C(=C/c2ccccc2OCc2cccc(F)c2)NC1=S the Potency was inconclusive [inhibitor, full curve].
For COc1cc(OC)c(NC(=O)c2cc(C(C)=O)n3ccccc23)cc1Cl, the “activity, negative = inhibition” value was inactive: -4.78%.
In the case of CC(=O)c1ccc(NC(=O)Nc2ccc([N+](=O)[O-])cc2C)cc1, the Potency is reported as inconclusive [inhibitor, partial curve, poor fit].
CCn1c(P(C)(=O)O)nc2cc(NC(=O)c3ccccc3Cl)ccc21 was tested, and the “activity, negative = inhibition” value was inactive: 7.18%.
With Cc1ccc(Nc2ncnc3c2cnn3-c2ccc(C)cc2)cc1 the Potency was inconclusive [inhibitor, single point].
In the case of CN(C)CCN(Cc1ccccc1)S(=O)(=O)c1ccc(-c2cc(C(F)(F)F)on2)s1, the Potency is reported as inconclusive [inhibitor, full curve, poor fit].
For Cc1ccc(/C=N/Nc2nc(C(C)(C)C)cs2)o1, the Potency was inconclusive [activator, full curve].
In the case of COc1ccc(NC(=O)c2sc3nc(C)c(C(=O)Nc4ccc(C)cc4C)c(-c4ccccc4Cl)c3c2N)cc1, the Potency is reported as inconclusive [inhibitor, single point].
With CN(C)c1ccc(N/C=C/C(=O)c2ccco2)cc1 the Potency was inconclusive [inhibitor, partial curve].
In the case of Fc1ccc(-c2cn3cc(Cc4ccccc4Cl)sc3n2)cc1, the Potency is reported as inconclusive [inhibitor, partial curve, poor fit].
Cc1ccc(NC(=O)CCCN2C(=O)c3cccc4cccc(c34)C2=O)cc1 was tested, and the Potency was inconclusive [inhibitor, single point].
With Cc1cccc(CNc2nc(-c3c(C)noc3C)nc3ccccc23)c1 the Potency was inconclusive [inhibitor, partial curve].
For CC(=O)Nc1ccn(-c2ccccc2)n1, the “activity, negative = inhibition” value was inactive: 6.84%.
For CCOC(=O)c1ccc(NC(=S)N2CCSC2c2ccc(Br)cc2)cc1 (centres undefined), the Potency was inconclusive [inhibitor, partial curve].
In the case of COC(=O)c1ccccc1NC(=O)CCCN1C(=O)C(c2ccccc2)Oc2cccnc21 (centres undefined), the “activity, negative = inhibition” value is reported as inactive: 0.317%.
With C/C=C/c1ccc(OCCCCNCc2ccco2)c(OC)c1 the “activity, negative = inhibition” value was inactive: 1.57%.
In the case of Cc1ccc(NC(=O)c2ccccc2)cc1OC(=O)c1ccccc1, the Potency is reported as inconclusive [inhibitor, partial curve, poor fit].
With COc1ccc(-c2nc(SC)n(S(=O)(=O)c3ccccc3)n2)cc1 the Potency was inconclusive [inhibitor, partial curve].
With Cc1cc(C)n2nc(SCC(=O)c3ccccc3)nc2n1 the “activity, negative = inhibition” value was inactive: 2.02%.
CCCOc1ccc(C(=O)Nc2ccc3nn(-c4ccc(OC)c(Cl)c4)nc3c2)cc1 was tested, and the Potency was inconclusive [inhibitor, partial curve].
For O=C(C1CCCN(S(=O)(=O)c2cccc3nonc23)C1)N1CCN(c2ccccc2Cl)CC1 (centres undefined), the Potency was inconclusive [activator, partial curve].
COC(=O)c1ccc2c(=O)n(Cc3ccco3)c(SCC(=O)Nc3cc(C)on3)nc2c1 was tested, and the Potency was inconclusive [inhibitor, single point].
In the case of O=C(OCn1ncc(Cl)c(Cl)c1=O)c1ccc(F)cc1, the Potency is reported as inconclusive [inhibitor, partial curve].
COc1cc(NC(=S)Nc2cccc(C)n2)cc(OC)c1OC was tested, and the “activity, negative = inhibition” value was inactive: 0.283%.
With CN1c2ccsc2C(=O)/C(=C\Nc2cccc(C(F)(F)F)c2)S1(=O)=O the Potency was inconclusive [inhibitor, single point].
For O=C1OCCN1C(=O)[C@H]1[C@H](c2ccc(Cl)cc2)C(c2cccc(Cl)c2)=NN1c1ccc(Br)cc1, the Potency was inconclusive [inhibitor, partial curve, poor fit].
With Cc1ccccc1C(=O)NC(=S)Nc1ccc(Oc2ccc(Cl)cc2)cc1 the “activity, negative = inhibition” value was inactive: -5.97%.
With COCCCNC(=O)c1ccc(Cn2c(=O)c3ccccc3n(CC(=O)Nc3c(C)cccc3C)c2=O)cc1 the Potency was inconclusive [inhibitor, single point].
With COc1cccc(NC(=O)c2cc(C(=O)Nc3cccc(OC)c3)n(C)n2)c1 the Potency was inconclusive [inhibitor, partial curve].
With CCOc1cc(-c2cc(-c3ccc(N)cc3)nc(N)c2C#N)ccc1O the Potency was inconclusive [activator, partial curve].
In the case of Cc1cccc(C(=O)OC(C)CN2CCN(C)CC2)c1 (centres undefined), the Potency is reported as inconclusive [inhibitor, single point].
Cc1nc2ccn(Cc3ccco3)c(=O)c2cc1C(=O)NCc1ccccc1F was tested, and the “activity, negative = inhibition” value was inactive: -1.64%.
With CCOc1ccc(N2CC(c3nc4ccccc4n3CCCOc3ccccc3OC)CC2=O)cc1 (centres undefined) the “activity, negative = inhibition” value was inactive: -8.43%.
With COc1ccc(NC(=O)C2CCN(S(=O)(=O)c3ccc4[nH]c(=O)ccc4c3)CC2)cc1Cl the “activity, negative = inhibition” value was inactive: -2.29%.
With COc1ccc(N2C(=O)CC(NNC(=O)c3ccco3)C2=O)cc1 (centres undefined) the “activity, negative = inhibition” value was inactive: -7.85%.
In the case of COc1ccc(N2CC(NC(=O)/C=C\c3ccc4c(c3)OCO4)CC2=O)cc1 (centres undefined), the Potency is reported as inconclusive [inhibitor, single point].
In the case of Cc1cccc(NC(=O)CSc2nnc(-c3ccco3)c(-c3ccco3)n2)c1, the Potency is reported as inconclusive [inhibitor, partial curve].
With CC(=O)Nc1cccc(NC(C)=O)n1 the Potency was “inactive”.
For COc1ccc(CCNC(=O)C2(c3cccs3)CCOCC2)cc1, the “activity, negative = inhibition” value was inactive: -0.597%.
In the case of O=C(CSc1nnnn1-c1ccc(O)cc1)N1N=C(c2ccc3ccccc3c2)CC1c1ccccc1 (centres undefined), the Potency is reported as active: 25.1 µM.
O=C(Cc1nc2ccccc2[nH]1)c1cccc([N+](=O)[O-])c1 was tested, and the Potency was inconclusive [activator, partial curve, poor fit].
COc1ccc(Br)cc1Cn1nnc(C(=O)Nc2ccc(C)cc2C)c1N was tested, and the Potency was inconclusive [inhibitor, single point].
With O=C(Cn1nc(-c2ccccc2)c2cnc3ccccc3c21)Nc1ccccc1 the “activity, negative = inhibition” value was inactive: -9.29%.
For CC1=C(C(=O)Nc2cccnc2)C(c2ccccc2)n2nc(SCc3ccccc3)nc2N1 (centres undefined), the Potency was inconclusive [inhibitor, single point].
For CCOC(=O)N1CCN(C(=O)CSc2ccc(-c3ccc(OC)c(OC)c3)nn2)CC1, the Potency was inconclusive [inhibitor, single point].
In the case of CC(CCCC(C)(C)O)NC(=O)c1ccc(OC2CCN(C(=O)C3CC3)CC2)cc1 (centres undefined), the “activity, negative = inhibition” value is reported as inactive: -6.44%.
O=C(NC1(O)C(=O)c2ccccc2C1=O)c1ccc(C(F)(F)F)cc1 was tested, and the Potency was inconclusive [inhibitor, full curve].
With Cc1cc(NC(=O)c2oc3ccccc3c2C)ccc1-n1cnnn1 the Potency was inconclusive [inhibitor, single point].
In the case of Cc1ccc2nc(-c3cc(NC(=O)/C=C/c4ccccc4)ccc3Cl)oc2c1, the Potency is reported as inconclusive [inhibitor, partial curve].
With CCCc1nc2ccccc2n1CCOc1ccccc1 the “activity, negative = inhibition” value was inactive: 0.976%.
For COc1ccc(OC)c(C2C3=C(N=C4SCC(=O)N42)c2ccccc2CC3)c1 (centres undefined), the Potency was inconclusive [inhibitor, single point].
C=CCSc1nnc(-c2cnn(-c3ccccc3)c2-n2cccc2)n1C was tested, and the “activity, negative = inhibition” value was inactive: -1.99%.
O=C(NCCC1=CCCCC1)C(=O)NCCc1ccc(Cl)cc1 was tested, and the Potency was inconclusive [inhibitor, full curve, poor fit].
For CC(=O)Nc1ccc2c(c1)C(=O)c1ccccc1C2=O, the “activity, negative = inhibition” value was inactive: 1.25%.
In the case of CCOC(=O)c1c(NC(=O)COc2cc(C)ccc2C(C)C)sc(C)c1C, the Potency is reported as inconclusive [inhibitor, partial curve].
Cc1ccc(CN2CCSc3ccc(C(=O)NCc4cccnc4)cc32)cc1 was tested, and the Potency was inconclusive [activator, partial curve].
For COc1ccc(CCNC(=O)CCCn2c(=O)c3ccccc3n(CC(=O)Nc3cc(Cl)ccc3C)c2=O)cc1OC, the Potency was inconclusive [inhibitor, partial curve].
